According to the supplement of paper PMC12423691:
Some of the results follow. Binding of human transcription factors and regulators to the viral nucleoprotein by AlphaScreen, crude cell-free proteins, amounts not normalised, one pass. Fold of the Venus control; higher = more signal. No active / inactive call. Single-pass screen; sequences are the whole Swiss-Prot entries looked up by name.

B1: E2F7, Q96AV8 (protein)
chain: MEVNCLTLKDLISPRQPRLDFAVEDGENAQKENIFVDRSRMAPKTPIKNEPIDLSKQKKFTPERNPITPVKFVDRQQAEPWTPTANLKMLISAASPDIRDREKKKGLFRPIENKDDAFTDSLQLDVVGDSAVDEFEKQRPSRKQKSLGLLCQKFLARYPSYPLSTEKTTISLDEVAVSLGVERRRIYDIVNVLESLHLVSRVAKNQYGWHGRHSLPKTLRNLQRLGEEQKYEEQMAYLQQKELDLIDYKFGERKKDGDPDSQEQQLLDFSEPDCPSSSANSRKDKSLRIMSQKFVMLFLVSKTKIVTLDVAAKILIEESQDAPDHSKFKTKVRRLYDIANVLTSLALIKKVHVTEERGRKPAFKWIGPVDFSSSDEELVDVSASVLPELKRETYGQIQVCAKQKLARHGSFNTVQASERIQRKVNSEPSSPYREEQGSGGYSLEIGSLAAVYRQKIEDNSQGKAFASKRVVPPSSSLDPVAPFPVLSVDPEYCVNPLAHPVFSVAQTDLQAFSMQNGLNGQVDVSLASAASAVESLKPALLAGQPLVYVPSASLFMLYGSLQEGPASGSGSERDDRSSEAPATVELSSAPSAQKRLCEERKPQEEDEPATKRQSREYEDGPLSLVMPKKPSDSTDLASPKTMGNRASIPLKDIHVNGQLPAAEEISGKATANSLVSSEWGNPSRNTDVEKPSKENESTKEPSLLQYLCVQSPAGLNGFNVLLSGSQTPPTVGPSSGQLPSFSVPCMVLPSPPLGPFPVLYSPAMPGPVSSTLGALPNTGPVNFSLPGLGSIAQLLVGPTAVVNPKSSTLPSADPQLQSQPSLNLSPVMSRSHSVVQQPESPVYVGHPVSVVKLHQSPVPVTPKSIQRTHRETFFKTPGSLGDPVLKRRERNQSRNTSSAQRRLEIPSGGAD
B2: ZFP42, Q96MM3 (protein)
chain: MSQQLKKRAKTRHQKGLGGRAPSGAKPRQGKSSQDLQAEIEPVSAVWALCDGYVCYEPGPQALGGDDFSDCYIECVIRGEFSQPILEEDSLFESLEYLKKGSEQQLSQKVFEASSLECSLEYMKKGVKKELPQKIVGENSLEYSEYMTGKKLPPGGIPGIDLSDPKQLAEFARKKPPINKEYDSLSAIACPQSGCTRKLRNRAALRKHLLIHGPRDHVCAECGKAFVESSKLKRHFLVHTGEKPFRCTFEGCGKRFSLDFNLRTHVRIHTGEKRFVCPFQGCNRRFIQSNNLKAHILTHANTNKNEQEGK
B3: TFEC, O14948 (protein)
chain: MTLDHQIINPTLKWSQPAVPSGGPLVQHAHTTLDSDAGLTENPLTKLLAIGKEDDNAQWHMEDVIEDIIGMESSFKEEGADSPLLMQRTLSGSILDVYSGEQGISPINMGLTSASCPSSLPMKREITETDTRALAKERQKKDNHNLIERRRRYNINYRIKELGTLIPKSNDPDMRWNKGTILKASVEYIKWLQKEQQRARELEHRQKKLEQANRRLLLRIQELEIQARTHGLPTLASLGTVDLGAHVTKQQSHPEQNSVDYCQQLTVSQGPSPELCDQAIAFSDPLSYFTDLSFSAALKEEQRLDGMLLDDTISPFGTDPLLSATSPAVSKESSRRSSFSSDDGDEL
B4: CRTC2, Q53ET0 (protein)
chain: MATSGANGPGSATASASNPRKFSEKIALQKQRQAEETAAFEEVMMDIGSTRLQAQKLRLAYTRSSHYGGSLPNVNQIGSGLAEFQSPLHSPLDSSRSTRHHGLVERVQRDPRRMVSPLRRYTRHIDSSPYSPAYLSPPPESSWRRTMAWGNFPAEKGQLFRLPSALNRTSSDSALHTSVMNPSPQDTYPGPTPPSILPSRRGGILDGEMDPKVPAIEENLLDDKHLLKPWDAKKLSSSSSRPRSCEVPGINIFPSPDQPANVPVLPPAMNTGGSLPDLTNLHFPPPLPTPLDPEETAYPSLSGGNSTSNLTHTMTHLGISRGMGLGPGYDAPGLHSPLSHPSLQSSLSNPNLQASLSSPQPQLQGSHSHPSLPASSLARHVLPTTSLGHPSLSAPALSSSSSSSSTSSPVLGAPSYPASTPGASPHHRRVPLSPLSLLAGPADARRSQQQLPKQFSPTMSPTLSSITQGVPLDTSKLSTDQRLPPYPYSSPSLVLPTQPHTPKSLQQPGLPSQSCSVQSSGGQPPGRQSHYGTPYPPGPSGHGQQSYHRPMSDFNLGNLEQFSMESPSASLVLDPPGFSEGPGFLGGEGPMGGPQDPHTFNHQNLTHCSRHGSGPNIILTGDSSPGFSKEIAAALAGVPGFEVSAAGLELGLGLEDELRMEPLGLEGLNMLSDPCALLPDPAVEESFRSDRLQ
B5: ZNF354C, Q86Y25 (protein)
chain: MAVDLLSAQEPVTFRDVAVFFSQDEWLHLDSAQRALYREVMLENYSSLVSLGIPFSMPKLIHQLQQGEDPCMVEREVPSDTRLGFKTWLETEALPHRQDIFIEETSQGMVKKESIKDGHWDINFEEAVEFESEIEEEQEKKPLRQMIDSHEKTISEDGNHTSLELGKSLFTNTALVTQQSVPIERIPNMYYTFGKDFKQNFDLMKCFQIYPGGKPHICNECGKSFKQNLHLIEHQRIHTGEKPYKCNECEKTFSHRSSLLSHQRIHTGEKPYKCNECEKAFSNSSTLIKHLRVHTGEKPYRCRECGKAFSQCSTLTVHQRIHTGEKLYKCGECEKAFNCRAKLHRHQRIHTGEKPYKCSECGKGYSQFTSLAEHQRFHTGEQLYTCLECGRTFTRIVTLIEHQRIHTGQKPYQCNECEKAFNQYSSFNEHRKIHTGEKLYTCEECGKAFGCKSNLYRHQRIHTGEKPYQCNQCGKAFSQYSFLTEHERIHTGEKLYKCMECGKAYSYRSNLCRHKKVHTKEKLYKWKEYGKPFICSSSLTQYQRFFKGDKAYEV
B6: RUNX3, Q13761 (protein)
chain: MRIPVDPSTSRRFTPPSPAFPCGGGGGKMGENSGALSAQAAVGPGGRARPEVRSMVDVLADHAGELVRTDSPNFLCSVLPSHWRCNKTLPVAFKVVALGDVPDGTVVTVMAGNDENYSAELRNASAVMKNQVARFNDLRFVGRSGRGKSFTLTITVFTNPTQVATYHRAIKVTVDGPREPRRHRQKLEDQTKPFPDRFGDLERLRMRVTPSTPSPRGSLSTTSHFSSQPQTPIQGTSELNPFSDPRQFDRSFPTLPTLTESRFPDPRMHYPGAMSAAFPYSATPSGTSISSLSVAGMPATSRFHHTYLPPPYPGAPQNQSGPFQANPSPYHLYYGTSSGSYQFSMVAGSSSGGDRSPTRMLASCTSSAASVAAGNLMNPSLGGQSDGVEADGSHSNSPTALSTPGRMDEAVWRPY

target: nucleoprotein N of Crimean-Congo hemorrhagic fever virus; experiment: AlphaScreen luminescence signal relative to Venus negative control (fold); higher = stronger binding to CCHFV N
Experimental: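 AlphaScreen binding of cell-free made, FLAG-GST-tagged human transcription factors and regulators (crude translation products) to biotinylated N protein; signal as fold of the FLAG-GST-Venus control. One pass.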

Binder | AlphaScreen luminescence signal
B1 | 2.51
B2 | 1.44
B3 | 1.91
B4 | 2.37
B5 | 2.42
B6 | 1.53
